Experimental data from PubChem BioAssay AID1918936 (Molecular Pharmacology Branch, DTP, NCI, 2023).
Not every entry of the source has a single result; some have several. This list holds those alone. An entry can have further records. The values listed for one entry are repeats across runs, samples, wells, individuals or studies. Signs of the kind (2×) count equal records among those shown. Marks such as [2022-09] give the month of the run.

Tested on: 349418-098-R-PDC complex spheroid viability
Experiment: Anticancer human tumor 349418-098-R-PDC patient-derived lung adenocarcinoma cell line growth inhibition
Settings: stronger effect = lower value
From the text: Multicellular complex tumor spheroid response to LSD1 Inhibitor Iadademstat in combination with a variety of drugs and investigational agents in selected tumor cell lines
The current study was undertaken to assess response to LSD1 inhibitors in combination with standard-of-care drugs and investigational agents in solid tumor complex spheroid models as well as in the K-562 leukemia. Complex spheroids include a stromal component modeled by human endothelial cells (HUVEC) and fibroblasts modeled by human mesenchymal stem cells (MSCs). The concentration ranges selected for each drug and investigational agent were based upon clinically achievable concentrations if the clinical Cmax of the agent was known.
Compounds. The drugs and investigational agents used in this study are listed on Table 1. All of the agents used, including staurosporine (NSC755774) and gemcitabine (NSC613327), were obtained from the Developmental Therapeutics Program, NCI. FDA-approved anticancer drugs are available from the NCI at http://dtp.nci.nih.gov/branches/dscb/oncology_drugset_explanation.html. Drugs and investigational agents were >95% pure by proton nuclear magnetic resonance (NMR) and liquid chromatography/mass spectrometry (LC/MS). Stock solutions were prepared at 400x in DMSO, stored at -70 degrees C, and diluted in fresh medium prior to their use. The final concentration of DMSO in cell culture wells never exceeded 0.25% (v/v). The FDA-approved anticancer drug set is available from the Developmental Therapeutics Program at https://dtp.cancer.gov/organization/dscb/obtaining/available_plates.htm. All drugs and investigational agents were tested over a range starting from a high concentration at or near the clinical Cmax and decreasing in half-log increments. If the clinical Cmax for an agent had not been determined, the highest concentration tested was 10 microM.
Cell Lines. The patient-derived cancer cell (PDC) lines: 292921-168-R-J2-PDC, K24384-001-R-PDC, and 521955-158-R2-J5-PDC pancreatic carcinomas, 556581-035-R-J1 ovarian carcinoma, 324938-238-R-J1-PDC, 855422-203-R-J1-PDC and 883617-216-R-J1-PDC urothelial bladder carcinomas, 743489-274-T-PDC renal cell carcinoma, 138582-R-J1 Merkel cell tumor, K60290-347-R-J1 and K57222-313-R-J1-PDC glioblastomas, 653999-131-R-J2-PDC, LG0703-F948-PDC, and 349418-098-R-PDC non-small cell lung carcinomas, 885512-296-R-J2-PDC, 171881-019-R-J1-PDC breast carcinomas and 186277-243-T-J2-PDC and 233499-124-R-J2-PDC colon carcinomas were obtained from the NCI Patient-Derived Models Repository (PDMR, https://pdmr.cancer.gov). The established cell lines NCI/ADR-RES (RRID:CVCL_14520 and OVCAR-5 (RRID:CVCL_1628) ovarian carcinomas, 786-O (RRID:CVCL_1051) and A498 (RRID:CVCL_A498) renal cell carcinoma, NCI-H211 (ATCC, cat. CRL-5824; RRID:CVCL_1529), NCI-H196 (ATCC, cat. CRL-5823, RRID:CVCL_1509), SW 1271 (ATCC, cat. CRL-2177, RRID:CVCL_1716) and NCI-H1876 (ATCC, cat. CRL-5902, RRID:CVCL_1503) small cell lung carcinomas, MDA-MB-231 (RRID:CVCL_0062) and MDA-MB-468 (RRID:CVCL_0419)breast carcinomas (10-12). Pooled donor human umbilical vein endothelial cells (HUVEC, Lonza, cat. CC-2519) and human mesenchymal stem cells (hMSC, Lonza, cat. PT-2501) were purchased from Lonza (Walkersville, MD).
Cell Culture. All cells were maintained in an incubator at 37 degrees C and 5% CO2 with 95% humidity. The PDC lines were cultured according to standard operating procedures established by the NCI PDMR (https://pdmr.cancer.gov). Briefly all PDCs were thawed and cultured in Matrigel-coated flasks prepared with a working solution of 1X Ham's F-12 nutrient mix, without supplementation (Invitrogen, Waltham, MA, cat. 11765054), 100 U/mL penicillin-streptomycin (Invitrogen, cat. 15140122), and 2.5% Matrigel (Corning Inc., Corning, NY, cat. 354248) for the first three passages. […]
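Note: spheroids exposed to agents for seven days before readout; 100% = DMSO vehicle control wells.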

| SMILES | viability, T/C (compound alone 3 µM) | viability, T/C (compound alone 0.1 µM) | viability, T/C (compound alone 1 µM) | viability, T/C (compound alone 10 µM) | viability, T/C (compound alone 0.316 µM) | viability, T/C (compound alone 3.16 µM) |
| --- | --- | --- | --- | --- | --- | --- |
| O=C(C=Cc1cccc(S(=O)(=O)Nc2ccccc2)c1)NO | 1.39% [2022-01] and 91.5% [2022-02] |  |  |  |  |  |
| NC1CCC(NC2CC2c2ccccc2)CC1 (configuration not stated) |  | 104 (2×), 103 (4×), 98.2, 102 (3×), 96.3 (2×), 110 (2×), 109 (2×), 99.4, 107, 92.9, 82.2, 108, 90.9, 114, 93.7% | 93.2, 97.9, 111 (2×), 112 (3×), 94.8, 115, 85.4, 120, 106 (2×), 103, 108 (2×), 113, 109, 88.3, 107 (3×), 104, 116, 105% | 88.1, 89.3, 86.1, 102 (3×), 90.6, 96.8, 90.5, 95.3, 81.5, 84.5, 92.2, 80.8, 85.6, 85.4, 96.9, 84.2, 85.2, 83.7, 88.8, 83.4, 108% |  |  |
| NC1CC1c1ccc(-c2cccc(O)c2)cc1 (configuration not stated) |  |  |  | 85.4, 92.8, 95.2, 78.8, 97, 97.5, 100, 85.5, 93.9, 94.8, 102, 94.4, 66.8, 99.3, 106, 88.3, 98.4, 99.5, 93.3, 91.1, 93.5, 86.5, 78.7, 70.4, 81.9% | 121 (2×), 104, 116 (2×), 109 (2×), 118, 117, 112, 111, 107, 106 (2×), 122, 114 (2×), 119, 108 (2×), 113, 103, 110, 95.9, 81.8% | 104, 117, 116, 108 (3×), 120, 119 (2×), 121, 112 (3×), 113, 115, 110, 109 (2×), 123 (2×), 111, 102, 107, 106, 92.5% |
